{"source": "PubChem BioAssay AID463173", "about": "(ICCB-Longwood Screening Facility, Harvard Medical School, 2010)", "note": "Among all 52,000 compounds or so, about 4,300 (8.3%) were called active. Cut-off read from the data, not from the text of the source: active = survival mostly below about 52% (no sharp cut-off); inactive = mostly above about 56%. The list shows a part of the results.", "data": [{"test_system": "DeltatarO mutant", "experiment": "S. aureus survival, RN4220 and DeltatarO strains – OD600, teichoic acid synthesis inhibitors, primary screen (AID 463173)", "settings": "S. aureus RN4220 wild type/DeltatarO growth, OD600, 18 h, stronger effect = lower value, screened at 18.75 µg/mL (by protocol)", "values": [{"smiles": "COc1ccc(NC(=O)CN(c2cccc(C)c2C)S(=O)(=O)c2ccccc2)cc1OC", "survival": "inactive: 61%"}, {"smiles": "Cc1cc2c(cc1C)C(c1cccc(OC(C)C)c1)CC(=O)N2", "note": "(stereo not drawn)", "survival": "inactive: 77%"}, {"smiles": "CCCCN(C)CCCNC(=O)Cn1nc(CC)n2c(cc3sc(C)cc32)c1=O", "survival": "inactive: 90%"}, {"smiles": "COc1ccc(C(=O)N2CCN(C(=O)COc3ccc(Br)cc3)CC2)cc1OC", "survival": "inactive: 60%"}, {"smiles": "CCc1ccc2[nH]c3nc(SCC(=O)OC(C)C)nnc3c2c1", "survival": "inactive: 108%"}, {"smiles": "COCCn1c(SCC(=O)c2ccccc2)nc2cc(C(=O)NC3CCCC3)ccc2c1=O", "survival": "inactive: 87%"}, {"smiles": "CCn1c(SCC(=O)Nc2nc(C)cs2)nnc1C(C)Oc1ccccc1", "note": "(stereo not drawn)", "survival": "inactive: 85%"}, {"smiles": "CCc1ccc2nc(N(Cc3cccnc3)C(=O)c3cccs3)sc2c1", "survival": "inactive: 122%"}, {"smiles": "CC(C)c1ccc(S(=O)(=O)Nc2ccc(O)c(Sc3nc4ccccc4s3)c2)cc1", "survival": "active: 1%"}, {"smiles": "CC(=O)c1ccc(NC(=O)CSc2nccn2Cc2ccco2)cc1", "survival": "inactive: 83%"}, {"smiles": "CSc1cccc(NC(=O)C2CCN(S(=O)(=O)c3ccc4[nH]c(=O)ccc4c3)CC2)c1", "survival": "inactive: 103%"}, {"smiles": "CC(=O)N1CCN(c2ccc(NC(=O)COc3ccc(Cl)c(C)c3)cc2)CC1", "survival": "inactive: 68%"}, {"smiles": "CCN(CC)CCN(C(=O)c1ccc(C(=O)OC)cc1)c1nc2ccc(Cl)cc2s1", "survival": "active: -4%"}, {"smiles": "CCOC(=O)C1(C)C=C(Nc2ccc(C)cc2)C(=O)N1c1ccccc1", "note": "(stereo not drawn)", "survival": "inactive: 50%"}, {"smiles": "COc1cc2c(=O)c(S(=O)(=O)c3ccc(C)cc3)cn(Cc3cccc(C)c3)c2cc1OC", "survival": "inactive: 70%"}, {"smiles": "CC1CN(C(=O)N2CCC(C(=O)NCCC3=CCCCC3)CC2)c2ccccc2O1", "note": "(stereo not drawn)", "survival": "inactive: 107%"}, {"smiles": "CCCCNC(=O)C1CCCN(c2nnc(C)c3c(C)n(-c4ccc(Cl)cc4)nc23)C1", "note": "(stereo not drawn)", "survival": "inactive: 67%"}, {"smiles": "O=C(CSc1nnc(-c2cccs2)o1)Oc1ccc(Cl)cc1", "survival": "inactive: 65%"}, {"smiles": "CC1CCN(CN2C(=O)CCC2=O)CC1", "survival": "inactive: 95%"}, {"smiles": "O=c1nc2ccccn2c2c1c(=O)[nH]c1ccccc12", "survival": "inactive: 106%"}, {"smiles": "CC(Oc1ccccc1F)C(=O)NCC1(N2CCOCC2)CCCCC1", "note": "(stereo not drawn)", "survival": "inactive: 61%"}, {"smiles": "Cc1cc(C)cc(NC(=O)c2cc(S(=O)(=O)N3CCCCC3)c[nH]2)c1", "survival": "inactive: 69%"}, {"smiles": "CC1=C2C(N)=C(C(=O)Nc3ccccc3)SC2NC(C(F)(F)F)=C1", "note": "(stereo not drawn)", "survival": "inactive: 95%"}, {"smiles": "CCOc1ccccc1C(=O)N=C1NC(=O)CS1", "survival": "inactive: 81%"}, {"smiles": "CC1CCCN(c2ncnc3c2nnn3C)C1", "note": "(stereo not drawn)", "survival": "inactive: 75%"}, {"smiles": "CCC1CN(C(=O)N2CCC(C(=O)NCc3ccccc3F)CC2)c2ccccc2O1", "note": "(stereo not drawn)", "survival": "inactive: 72%"}, {"smiles": "O=C(Nc1ccc(C(F)(F)F)cc1)C1(c2cccs2)CCOCC1", "survival": "inactive: 87%"}, {"smiles": "CCCOC(=O)c1cccc(Nc2nc(C(=O)OCC)nc3ccccc23)c1", "survival": "active: 20%"}, {"smiles": "COc1ccc(CNC(=O)Cc2ccc(NC(=O)N3CCCCc4ccccc43)cc2)cc1", "survival": "inactive: 67%"}, {"smiles": "CCOc1ccc(NC(=O)c2cc(S(=O)(=O)N3CCC(C)CC3)cn2C)cc1", "survival": "inactive: 112%"}, {"smiles": "O=C(Nc1nnc2n1CCS2)c1cc(C(F)(F)F)cc(C(F)(F)F)c1", "survival": "inactive: 95%"}, {"smiles": "CCOc1ccc(N(C)S(=O)(=O)c2cc(-c3cnc(C)o3)ccc2OC)cc1", "survival": "inactive: 68%"}, {"smiles": "CN(C)S(=O)(=O)c1ccc2c(c1)N(CC(=O)N1CCC(C(N)=O)CC1)CCS2", "survival": "inactive: 88%"}, {"smiles": "COc1ccc(/C=C/C(=O)Nc2cccc(F)c2)cc1", "survival": "inactive: 50%"}, {"smiles": "Cc1ccc(C)c(NC(=O)Cn2cc(S(=O)(=O)c3ccc(F)cc3)c(=O)c3cc(F)ccc32)c1", "survival": "inactive: 87%"}, {"smiles": "Cc1cc(=O)n2[nH]c(CC(=O)O)nc2n1", "survival": "inactive: 98%"}, {"smiles": "COc1ccc(CNC(=O)C2CCN(c3nnc(C)c4c(C)n(-c5ccc(C)cc5)nc34)CC2)cc1", "survival": "inactive: 105%"}, {"smiles": "CCc1ccc(NC(=O)c2sc3nc(C)cc(C)c3c2NC(=O)c2ccccc2)cc1", "survival": "inactive: 83%"}, {"smiles": "COc1ccc(OC)c(-c2cc(C(=O)NCc3ccc(Cl)cc3)no2)c1", "survival": "inactive: 47%"}, {"smiles": "Cc1ccc(-c2nn3c(C)nnc3c3ccccc23)cc1S(=O)(=O)NC(C)(C)CO", "survival": "inactive: 74%"}, {"smiles": "COc1cccc(CNC(=O)Nc2ccc3c(c2)N(C)C(=O)c2ccccc2S3)c1", "survival": "active: 42%"}, {"smiles": "Cc1ccccc1NC(=O)C1CCN(S(=O)(=O)c2cccc3nonc23)CC1", "survival": "inactive: 120%"}, {"smiles": "Nc1ccc(-c2nc3c(Cl)cccc3[nH]2)cc1", "survival": "inactive: 97%"}, {"smiles": "Cc1oc(-c2ccccc2)nc1Cn1c(=O)cc(-c2ccccc2)c2c(C)nn(C)c21", "survival": "inactive: 92%"}, {"smiles": "COc1ccccc1N1CCN(C(=O)c2ccco2)CC1", "survival": "inactive: 104%"}, {"smiles": "O=C(Nc1c[nH]c(=O)[nH]c1=O)c1ccco1", "survival": "inactive: 97%"}, {"smiles": "CCN(C(=O)Cn1cnc2c1c(=O)n(C)c(=O)n2C)c1ccccc1C", "survival": "inactive: 87%"}, {"smiles": "Cc1ccc(NC(=O)c2cnc(SCC(=O)N3CCCc4ccccc43)n(C)c2=O)cc1C", "survival": "inactive: 85%"}, {"smiles": "Cn1c(=O)c2c(-c3ccccc3)n3c(c2n(C)c1=O)C(c1cccc([N+](=O)[O-])c1)Nc1ccccc1-3", "note": "(stereo not drawn)", "survival": "inactive: 53%"}, {"smiles": "Cc1cccc(C)c1NC(=O)Cn1c(=O)n(CCC(=O)NCc2ccc3c(c2)OCO3)c(=O)c2sccc21", "survival": "inactive: 90%"}, {"smiles": "COc1ccc(-c2cc(C(F)(F)F)n3nc(C(=O)Nc4ccc(Cl)cc4C(F)(F)F)cc3n2)cc1OC", "survival": "inactive: 93%"}, {"smiles": "Cc1ccc(NC(=O)C2CCCN(c3nc4ccccc4s3)C2)c(C)c1", "note": "(stereo not drawn)", "survival": "inactive: 76%"}, {"smiles": "CCc1ccc2[nH]c(=O)c(C(c3nnnn3C(C)(C)C)N3CCCCC3)cc2c1", "note": "(stereo not drawn)", "survival": "inactive: 95%"}, {"smiles": "COc1ccc(C(=O)N2CCN(CCc3ccccn3)CC2)cc1", "survival": "inactive: 109%"}, {"smiles": "O=C(CCS(=O)(=O)c1nc(-c2ccc3c(c2)OCO3)cc(C(F)(F)F)n1)Nc1ccccc1C(F)(F)F", "survival": "inactive: 71%"}, {"smiles": "COC(=O)Cn1c(SCCOc2ccccc2Cl)nc2ccccc21", "survival": "active: 42%"}, {"smiles": "COc1ccc(C(C)=O)cc1CSc1nc(NCc2ccc(Cl)cc2)c2ccccc2n1", "survival": "active: 8%"}, {"smiles": "CN(C)c1ccc(/C=N/NC(=O)c2ccccc2)cc1", "survival": "inactive: 95%"}]}]}
